Laboratory results from PubChem BioAssay AID488969 (Vanderbilt High Throughput Screening Facility, 2010).
Over roughly 110,000 compounds, “z-score” has its median near -0.1; the highest 2% begin near 2. The list shows a part of the results.

Each compound was assayed against Metabotropic glutamate receptor 8 (Rattus norvegicus) (UniProt P70579) (assay: mGluR8 Gi/Go-coupled signaling modulation – cell-based, rat, thallium flux, HTS, primary screen (AID 488969)). Conditions: HEK293 rat mGluR8, GIRK (G protein-gated inwardly rectifying potassium channel) thallium flux, FluoZin2; at 10 µM; stronger effect = higher value; submaximal glutamate (EC20) added with thallium.
Chain of UniProt P70579 (P70579 whole entry, looked up): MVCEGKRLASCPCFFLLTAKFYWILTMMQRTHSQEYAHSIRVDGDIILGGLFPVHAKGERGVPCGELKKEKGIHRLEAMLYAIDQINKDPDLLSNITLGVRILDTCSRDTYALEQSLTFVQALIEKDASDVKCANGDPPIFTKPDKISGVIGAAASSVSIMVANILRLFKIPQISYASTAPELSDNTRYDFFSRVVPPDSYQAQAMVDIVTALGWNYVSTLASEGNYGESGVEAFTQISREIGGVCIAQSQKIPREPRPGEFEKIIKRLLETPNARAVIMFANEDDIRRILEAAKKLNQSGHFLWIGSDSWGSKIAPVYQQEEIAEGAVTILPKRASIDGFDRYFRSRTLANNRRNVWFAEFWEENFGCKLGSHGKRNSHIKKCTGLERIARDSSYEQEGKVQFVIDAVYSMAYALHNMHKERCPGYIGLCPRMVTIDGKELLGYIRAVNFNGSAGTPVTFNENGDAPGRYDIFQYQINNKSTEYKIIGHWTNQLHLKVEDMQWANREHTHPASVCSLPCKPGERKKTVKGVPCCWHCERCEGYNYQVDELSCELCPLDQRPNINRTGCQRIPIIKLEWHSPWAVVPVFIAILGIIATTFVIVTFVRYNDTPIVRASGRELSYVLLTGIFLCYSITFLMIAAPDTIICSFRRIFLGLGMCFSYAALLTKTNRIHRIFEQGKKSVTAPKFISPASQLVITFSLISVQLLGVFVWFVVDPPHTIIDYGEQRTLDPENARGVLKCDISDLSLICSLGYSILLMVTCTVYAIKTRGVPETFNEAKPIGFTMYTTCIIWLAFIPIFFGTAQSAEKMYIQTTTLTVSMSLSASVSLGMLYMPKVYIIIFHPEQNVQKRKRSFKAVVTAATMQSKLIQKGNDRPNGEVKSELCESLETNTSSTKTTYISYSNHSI
Compound `CCc1c(C)sc(NC(=O)c2ccc(Br)o2)c1C(=O)OC` has a z-score of -0.376. With `COc1ccc(-c2noc(CCC(=O)NCCN(C)Cc3ccccc3)n2)cc1` the z-score was 0.311. `Fc1ccccc1CSc1nncn1NCc1cccs1` gave a z-score of 0.114. Compound `CCCNC(=O)c1ccc(N(Cc2ccccc2)S(C)(=O)=O)cc1` has a z-score of -0.332. `COc1ccc(N2C(=O)C(Cl)=C(Nc3ccccc3O)C2=O)cc1` was tested, and the z-score was -0.162. In the case of `Cc1ccc(-n2ncc3c(=O)[nH]cnc32)c(C)c1`, the z-score is reported as 1.35. With `O=C1c2ccccc2C(O)N1c1cccnc1` (centres undefined) the z-score was -0.0998. In the case of `Cc1cc(C)n(-c2ccc(-n3ccnc3)nn2)n1`, the z-score is reported as -0.0693. For `Cc1ccc(-n2nc(CN3CCOCC3)c(-c3ccccc3)c2N)cc1Cl`, the z-score was -0.672. In the case of `CCCCn1c(/N=C/c2ccc(N(C)C)cc2)nc2ccccc21`, the z-score is reported as -0.34. `COc1cc2nc(-c3ccc(Br)o3)oc(=O)c2cc1OC` was tested, and the z-score was -1.58. With `Cc1c(NC(=O)c2cccs2)cccc1-c1nc2ccccc2s1` the z-score was -0.476. `C/C(=N\S(=O)(=O)c1ccc(C)cc1)N1CCN(S(=O)(=O)c2ccccc2)C1C(C)C` (centres undefined) showed a z-score of -0.0878. `Oc1c(C(c2cccs2)N2CCN(c3ccccc3)CC2)sc2ncnn12` (centres undefined) was tested, and the z-score was 0.429. `C=CCNc1oc(Cc2cccc3ccccc23)nc1C#N` gave a z-score of -0.633. With `Cc1ccnc(Sc2nc3c(c(=O)[nH]c(=O)n3C)n2CCCc2ccccc2)n1` the z-score was 0.29. `OCCNC(=S)Nc1ccc(Cl)c(Cl)c1` gave a z-score of 0.296. Work on `COC(=O)c1cccc(NC(=O)CN2CCN(Cc3ccccc3)CC2)c1` yielded a z-score of -0.223. Work on `COc1ccc(CCN2CN(S(=O)(=O)c3ccccc3)c3nc4ccccc4nc32)cc1OC` yielded a z-score of -0.948. Compound `COc1ccc(OC)c(-n2c(-c3cccc(O)c3)n[nH]c2=S)c1` has a z-score of -0.429. Compound `Cc1nn(C)c(Cl)c1NC(=O)OCc1ccccc1` has a z-score of -0.064. In the case of `Cc1ccc2nc(-c3ccc(NC(=S)NCCC(C)C)cc3)sc2c1`, the z-score is reported as 0.169. Compound `Cn1c(=O)cc(SCC(=O)Nc2ccc3c(c2)OCO3)c2ccccc21` has a z-score of -0.276. In the case of `Cc1ccc(N=Nc2c(=O)[nH]n3c(=O)cc(C)[nH]c23)cc1`, the z-score is reported as -0.491. In the case of `CN1CCN(C(=O)c2cc(-c3ccco3)on2)CC1`, the z-score is reported as -0.486. In the case of `Cc1ccccc1NC(=O)CSc1nnnn1C`, the z-score is reported as -0.213. `COc1cnc(SCc2c(Cl)cccc2Cl)nc1Cl` gave a z-score of 0.0106. `Cc1ccc2c(c1)N(CC(=O)NCc1cccnc1)C(=O)CO2` showed a z-score of -0.0749. `COc1ccccc1-c1csc(Cc2nnc3n2CCCCC3)n1` gave a z-score of -0.152. Compound `CCOc1c(Br)cc(CNc2ccc3c(c2)OCCO3)cc1OC` has a z-score of 0.0844. Compound `O=[N+]([O-])c1ccc(O)c(/C=N/n2cnc3ccccc32)c1` has a z-score of -0.812. Work on `Cn1c(NCc2ccccc2)nc2c1c(=O)n(Cc1ccccc1)c(=O)n2C` yielded a z-score of -0.0134. In the case of `CC(=O)Nc1ccc2c(c1)nc(CN1CCCC1)n2C`, the z-score is reported as 0.268. In the case of `[O-][n+]1c2c(nn1-c1ccccc1Cl)-c1nonc1CC2`, the z-score is reported as 1.15. In the case of `CC1CC1c1ccc(/C=C(\C#N)C(=O)Nc2cc(Cl)ccc2Cl)o1` (centres undefined), the z-score is reported as -0.184. Work on `CC1CCN(CC(=O)Nc2ccccc2Sc2ccccc2)CC1` yielded a z-score of 0.156. In the case of `CC1=Nn2c(nnc2-c2ccccc2F)SC1`, the z-score is reported as -0.0427. `CC(C(=O)N1CCN(C)CC1)N1C(=O)c2ccccc2C1=O` (centres undefined) showed a z-score of -0.255. `COCCNC(=O)c1ccccc1NS(=O)(=O)c1ccc(C)c([N+](=O)[O-])c1` showed a z-score of -0.243. Work on `Cc1ccc(C(=O)CN(C(=O)c2ccc(Cl)c(Cl)c2)N2C(=O)C3CCCCC3C2=O)cc1` (centres undefined) yielded a z-score of -0.0228. `Nc1nonc1C(=O)NCCN=Cc1ccccc1O` was tested, and the z-score was -0.0696. `COc1ccc(Cl)cc1S(=O)(=O)N1CCN(CC(=O)C(C)(C)C)CC1` showed a z-score of -0.0402. `Cc1ccc2c(n1)CC(C)(C)CC2=O` was tested, and the z-score was 0.488. `O=[N+]([O-])c1cc(-c2nnc(C34CC5CC(CC(C5)C3)C4)o2)cc([N+](=O)[O-])c1` was tested, and the z-score was -0.0494. In the case of `O=C(Nc1cccc(-c2nc3cc(Cl)ccc3o2)c1)C1CCCO1` (centres undefined), the z-score is reported as -0.897. For `O=C(O)Cn1nc2ccccc2n1`, the z-score was 0.054. Compound `CCN1CCN(CC(=O)NC2CCCC2)C(=O)C1=O` has a z-score of 0.151. `CN1CCN(CCOc2cccc(Cl)c2)CC1` was tested, and the z-score was 0.0749. `CCc1nnc(NS(=O)(=O)c2ccc(N=Cc3c(C)[nH]n(-c4ccc(Cl)cc4)c3=O)cc2)s1` gave a z-score of -0.276. With `CC(C)CNC(=O)COC(=O)c1ccc(Cl)c(S(N)(=O)=O)c1` the z-score was -0.04. `CC(/C=C/c1ccc(Cl)o1)=C\C(=O)O` showed a z-score of -0.292. Compound `COc1ccccc1NC(=O)CNS(=O)(=O)c1ccccc1` has a z-score of -0.239. Compound `Cc1cccc(NCc2nc3ccccc3n2C)c1` has a z-score of 0.0676. Compound `Cc1ccc(OCc2nc3c4c(ncn3n2)-c2ccccc2CC42CCCC2)cc1` has a z-score of 0.173. `COc1ccc(C)cc1NC(=O)c1ccc(CN2CCN(c3ccccc3)CC2)cc1` showed a z-score of -0.262. `Cc1nn(CCC(=O)NNC(=S)Nc2ccc(F)cc2)c(C)c1Br` showed a z-score of 1.23. `COCCNC(=O)c1cc(-c2cccc(OC)c2)on1` gave a z-score of -0.215. Work on `CCS(=O)(=O)c1ccc2oc(SCC(=O)NC3CCCC(C)C3C)nc2c1` (centres undefined) yielded a z-score of -0.206. In the case of `O=C(NC12CCC(O)C(SC1)/C2=N/O)c1ccccc1` (centres undefined), the z-score is reported as 0.441. In the case of `O=C(NC(=S)NCC1CCCO1)c1cccc([N+](=O)[O-])c1` (centres undefined), the z-score is reported as 0.722. In the case of `O=C(N/N=C/C=C/c1ccc2c(c1)OCO2)c1ccc([N+](=O)[O-])cc1`, the z-score is reported as 0.0517. `C/C(N)=C(/C#N)C(=O)CSc1nnc(Nc2cccc(C)c2C)s1` gave a z-score of 0.137. In the case of `COCc1cc(C)nc(N2CCCCC2)c1C#N`, the z-score is reported as 0.196. For `Cc1cccc(N(C(=O)c2nsc(Cl)c2Cl)C(C(=O)NC2CCCC2)c2ccc(O)cc2)c1C` (centres undefined), the z-score was 0.0533. Work on `Fc1ccccc1C(c1nnnn1Cc1ccc2c(c1)OCO2)N1CCN(Cc2ccco2)CC1` (centres undefined) yielded a z-score of -0.322. `O=C(CN1C(=O)C2CC=CCC2C1=O)Nc1nnc(SCc2ccc(Cl)cc2)s1` (centres undefined) was tested, and the z-score was -0.31. `CC1Cc2ccccc2N1C(=O)c1cnsn1` (centres undefined) showed a z-score of 0.579. `CCCOc1ccc(-c2csc(N)n2)cc1[N+](=O)[O-]` showed a z-score of -0.349. With `C=CCn1c(CCCOc2ccc(Cl)cc2Cl)nnc1SCC(=O)Nc1nccs1` the z-score was -0.131. For `COCCn1c(=NC(=O)c2cc(Cl)sc2Cl)sc2cc(S(N)(=O)=O)ccc21`, the z-score was -0.409. In the case of `CCOC(=O)N1CCC2(CC1)C(C#N)=C(N)Oc1n[nH]c(C)c12`, the z-score is reported as -0.141. `O=C(NCCc1ccc(F)cc1)N1CCOCC1` gave a z-score of -0.308. For `COc1ccc(N2CCN(C(=O)CSc3nnc(-c4ccc5[nH]c(C)c(C)c5c4)o3)CC2)cc1`, the z-score was -0.322. `CCCOC(=O)C1C2C=CC(C2)C1C(=O)OCC(=O)c1ccccc1` (centres undefined) gave a z-score of -0.143. In the case of `O=C(CC12CC3CC(CC(C3)C1)C2)N/N=C/c1ccc([N+](=O)[O-])o1`, the z-score is reported as 0.0479. Compound `Cc1cccc(C)c1N1CC(=O)N(c2c(C)cccc2C)CC1=O` has a z-score of -0.0539. Compound `CCCCC(=O)NS(=O)(=O)c1ccc(N=NN2CCOCC2)cc1` has a z-score of -0.294. Work on `Cc1cc(C)cc(N2Cc3ccccc3C2)c1` yielded a z-score of -0.0226. Compound `Cc1ccc(OCC(=O)n2nc(C)cc2C)c(C)c1` has a z-score of 0.688. With `O=C(CN1CCN(Cc2ccccc2F)C1=O)NCc1cccnc1` the z-score was -0.0488. In the case of `O=c1cc(-c2ccc3c(c2)OCCO3)oc2ccc(Cl)cc12`, the z-score is reported as 0.00721. `COc1ccc(NC(=O)c2ccc(-c3ccc([N+](=O)[O-])cc3)o2)cc1OC` gave a z-score of -1.57. Compound `CN(C)CCNC(=O)CN1C(=O)COc2ccc(C(C)(C)C)cc21` has a z-score of -0.247. `CCOC(=O)c1cnn(-c2ccc(C(F)(F)F)cn2)c1N` was tested, and the z-score was -0.00627. `CCc1cccc2c(C(=O)CSc3nncn3-c3ccccc3OC)c[nH]c12` showed a z-score of -0.601. Work on `Cc1cccc2cc(CN(CC3CCCO3)C(=O)c3ccco3)c(=O)[nH]c12` (centres undefined) yielded a z-score of -0.233. Work on `O=[N+]([O-])c1cc(/C=N/Nc2nc(N3CCCCC3)nc(N3CCCCC3)n2)ccc1O` yielded a z-score of -0.557. `Clc1cc(Cl)cc(CSc2nnc(-c3sccc3-n3cccc3)o2)c1` showed a z-score of 0.398. With `CCNC(=S)N(Cc1cc2cccc(C)c2[nH]c1=O)C1CCCC1` the z-score was 0.976. `COc1nc(NCCN2CCOCC2)nc(Nc2ccc([N+](=O)[O-])cc2)n1` showed a z-score of 1.5. `COCCCNC(=O)CN(c1cc(Cl)cc(Cl)c1)S(C)(=O)=O` was tested, and the z-score was 0.195. Work on `CCOC(=O)/C=c1\sc2n(c1=O)CCN=2` yielded a z-score of -0.165. In the case of `COc1ccc(N2C(=O)CC(NCCNc3ccc([N+](=O)[O-])cn3)C2=O)cc1` (centres undefined), the z-score is reported as -0.27. With `Cc1nnc(SCC(=O)NC2CCCC2)s1` the z-score was 0.395. With `CC(C)(C)NCCOCCOc1ccccc1-c1ccccc1` the z-score was -0.146. Work on `Cc1cc(=O)oc(C)c1C(=O)Nc1cnc2ccccc2c1` yielded a z-score of 0.494. In the case of `Cc1ccc2nc(-c3ccc(S(=O)(=O)N4CCOCC4)cc3)cn2c1`, the z-score is reported as -0.531. `Cc1cccn2cc(-c3ccc(S(=O)(=O)N4CCOCC4)cc3)nc12` showed a z-score of -0.0314. For `COc1ccc(-c2nnc(SC(C)C(=O)NNC(=O)c3ccc(C)cc3)o2)cc1` (centres undefined), the z-score was 2.1. `Cc1cccc(-c2cc(C(=O)Nc3ccc4c(c3)OCCO4)c3ccccc3n2)c1` showed a z-score of -0.3. Compound `COc1ccc(S(=O)(=O)Nc2ccc(S(=O)(=O)N(C)C)cc2)cc1[N+](=O)[O-]` has a z-score of -0.113. For `COc1cccc2c1OC1(C)CC2NC(=O)N1c1cccc(C(=O)N2CCN(c3ccccn3)CC2)c1` (centres undefined), the z-score was 0.0134. `Cn1c(=NC(=O)CCl)sc2ccccc21` showed a z-score of -0.0145. With `CCN(CC)c1ccc(C(=S)N2CCN(c3ccccc3)CC2)cc1` the z-score was 0.0899. In the case of `COCCOC(=O)c1[nH]c2c(c1C)C(=O)CC(c1ccc(F)cc1)C2` (centres undefined), the z-score is reported as -0.126. `Cc1ccc(NC(=O)c2ccc(CSc3ncnc4nc[nH]c34)cc2)c(C)c1` showed a z-score of 0.0227. `CCNc1nc(Oc2ccc(=O)n(C)n2)nc(N2CCOCC2)n1` was tested, and the z-score was -0.0751. With `CCc1c(C)sc(NC(=O)C2CC2)c1C(=O)OC(C)C` the z-score was -0.193. In the case of `CC(C)NC(=S)NC(=O)/C=C/c1cccc2ccccc12`, the z-score is reported as 0.214. Compound `Cc1ccc(/C=N/NC(=O)CCCOc2ccc(Cl)cc2Cl)cc1` has a z-score of -0.111. Compound `COc1cc(/C=C(\C#N)C(=O)Nc2cccnc2)ccc1OC(C)C` has a z-score of 2.99. `Cc1nc(NCCO)c(C#N)c2c1COC(C)(C)C2` showed a z-score of 0.352. Compound `S=C(NCC1CCCO1)Nc1ccccc1Cl` (centres undefined) has a z-score of -0.222. `Cn1c(=O)c2c(ncn2CC(=O)N/N=C/C(Br)=C/c2ccccc2)n(C)c1=O` was tested, and the z-score was 0.116.
